Consider 14 compounds from the supplement of paper PMC4604168 (melanoma cell lines).

This is one part of the list. Repeats are few or missing, and single values can be far off.
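Further: cell number obtained by counting DAPI-stained nuclei in high-throughput microscope images with image analysis software, screen run in 1,536-well plates.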

The assay has as its system WM451Lu. The assay can be described thus: cell count relative to DMSO control; melanoma cells; higher = more viable cells. Conditions: library dose: low library concentration; 72 h.
Compound `Oc1cc(-c2nc(-c3ccccc3)[nH]c2-c2ccncc2)ccc1Cl` + O=C(Oc1ccc([N+](=O)[O-])cc1)N1CCC(C(O)(c2ccc3c(c2)OCO3)c2ccc3c(c2)OCO3)CC1 [JZL184] (first compound 0.2 µM, partner dose 1 µM) returned a cell count of 123%.

As to `Nc1ccn([C@@H]2O[C@H](CO)[C@@H](O)C2(F)F)c(=O)n1` [gemcitabine] + C/C(O)=C(\C#N)C(=O)Nc1cc(Br)ccc1Br [LFM-A13] (first compound 0.0004 µM, partner dose 2 µM), the cell count was determined as 90.9%.

For `CC(C)C[C@H](NC(=O)[C@H](Cc1ccccc1)NC(=O)c1cnccn1)B(O)O` [Bortezomib] + C/C(O)=C(\C#N)C(=O)Nc1cc(Br)ccc1Br [LFM-A13] (first compound 0.001 µM, partner dose 2 µM), the cell count came out at 84.1%.

On to `CO[C@H]1C[C@@H]2CC[C@@H](C)[C@@](O)(O2)C(=O)C(=O)N2CCCC[C@H]2C(=O)O[C@H]([C@H](C)C[C@@H]2CC[C@@H](OCCO)[C@H](OC)C2)CC(=O)[C@H](C)/C=C(\C)[C@@H](O)[C@@H](OC)C(=O)[C@H](C)C[C@H](C)/C=C/C=C/C=C/1C` [everolimus] + Cc1cc(SCc2sc(-c3ccc(C(F)(F)F)c(F)c3)nc2C)ccc1OCC(=O)O [GW0742] (first compound 0.02 µM, partner dose 2 µM), for which the cell count is 99.5%.

`Nc1ccn([C@@H]2O[C@H](CO)[C@@H](O)C2(F)F)c(=O)n1` [gemcitabine] + O=C(Oc1ccc([N+](=O)[O-])cc1)N1CCC(C(O)(c2ccc3c(c2)OCO3)c2ccc3c(c2)OCO3)CC1 [JZL184] (first compound 0.0004 µM, partner dose 1 µM): the cell count stood at 116%.

Consider `Cc1nc(Nc2ncc(C(=O)Nc3c(C)cccc3Cl)s2)cc(N2CCN(CCO)CC2)n1` [dasatanib] + Cc1cc(SCc2sc(-c3ccc(C(F)(F)F)c(F)c3)nc2C)ccc1OCC(=O)O [GW0742] (first compound 0.004 µM, partner dose 2 µM), for which the cell count came out at 61.3%.

`COCC[n+]1c2c(n(Cc3cnccn3)c1C)C(=O)c1ccccc1C2=O` + Cc1cc(SCc2sc(-c3ccc(C(F)(F)F)c(F)c3)nc2C)ccc1OCC(=O)O [GW0742] (first compound 0.0004 µM, partner dose 2 µM) registered a cell count of 62.8%.

Compound `Cc1cc(Nc2cc(N3CCN(C)CC3)nc(Sc3ccc(NC(=O)C4CC4)cc3)n2)n[nH]1` [Tozasertib] + C/C(O)=C(\C#N)C(=O)Nc1cc(Br)ccc1Br [LFM-A13] (first compound 0.006 µM, partner dose 2 µM) registered a cell count of 87.9%.

`Cc1cc(Nc2cc(N3CCN(C)CC3)nc(Sc3ccc(NC(=O)C4CC4)cc3)n2)n[nH]1` [Tozasertib] + C[As](C)SC[C@H](NC(=O)CC[C@H](N)C(=O)O)C(=O)NCC(=O)O [Darinaparsin] (first compound 0.006 µM, partner dose 0.4 µM) registered a cell count of 111%.

`COc1ccc(COc2ccc(Cc3cnc(N)nc3N)cc2OC)cc1` + C/C(O)=C(\C#N)C(=O)Nc1cc(Br)ccc1Br [LFM-A13] (first compound 1 µM, partner dose 2 µM) registered a cell count of 80.4%.

As to `O=C(O)c1ccc2c(c1)nc(Nc1cccc(Cl)c1)c1ccncc12` + O=C(Oc1ccc([N+](=O)[O-])cc1)N1CCC(C(O)(c2ccc3c(c2)OCO3)c2ccc3c(c2)OCO3)CC1 [JZL184] (first compound 0.4 µM, partner dose 1 µM), the cell count came out at 99.8%.

With `COc1ccc(COc2ccc(Cc3cnc(N)nc3N)cc2OC)cc1` + Cc1cc(SCc2sc(-c3ccc(C(F)(F)F)c(F)c3)nc2C)ccc1OCC(=O)O [GW0742] (first compound 1 µM, partner dose 2 µM), the cell count was 104%.

In turn, `Clc1ccc(Nc2nnc(Cc3ccncc3)c3ccccc23)cc1` [vatalanib] + C[As](C)SC[C@H](NC(=O)CC[C@H](N)C(=O)O)C(=O)NCC(=O)O [Darinaparsin] (first compound 2 µM, partner dose 0.4 µM) gave a cell count of 82.2%.

`CC(C)C[C@H](NC(=O)[C@H](Cc1ccccc1)NC(=O)c1cnccn1)B(O)O` [Bortezomib] + N.N.[Cl][Pt][Cl] [cisplatin] (first compound 0.001 µM, partner dose 1.6 µM) yielded a cell count of 54.3%.
